Patent publication US11618753B2 (priority 2018, dated 2023)

Tested on: MLKL phosphorylation, HT29-L23 human colorectal adenocarcinoma cells
Experiment: cells
Conditions: read-out: pMLKL HCS Cell Assay (IC50, uM)

Compound | IC50
C[C@@](O)(C(=O)N1C[C@H](F)[C@H](NC(=O)c2cc(-c3cc(C(F)(F)F)c4c(N)ncnn34)ccc2CF)C1)C(F)(F)F [Example 910, 5-[4-amino-5-(trifluoromethyl)pyrrolo[2,1-f][1,2,4]triazin-7-yl]-N-[(3R,4S)-4-fluoro-1-[(2R)-3,3,3-trifluoro-2-hydroxy-2-methylpropanoyl]pyrrolidin-3-yl]-2-(fluoromethyl)benzamide] | 0.0035 µM
Nc1ncnn2c(-c3ccc(CF)c(C(=O)N[C@@H]4CN(C(=O)CC(O)(C(F)(F)F)C(F)(F)F)C[C@@H]4F)c3)cc(C(F)(F)F)c12 [Example 912, 5-[4-amino-5-(trifluoromethyl)pyrrolo[2,1-f][1,2,4]triazin-7-yl]-N-[(3R,4S)-4-fluoro-1-[4,4,4-trifluoro-3-hydroxy-3-(trifluoromethyl)butanoyl]pyrrolidin-3-yl]-2-(fluoromethyl)benzamide] | 0.0023 µM
Nc1ncnn2c(-c3ccc(CF)c(C(=O)N[C@@H]4CN(C(=O)c5ccccc5F)C[C@@H]4F)c3)cc(C(F)(F)F)c12 [Example 913, 5-[4-amino-5-(trifluoromethyl)pyrrolo[2,1-f][1,2,4]triazin-7-yl]-N-[(3R,4S)-4-fluoro-1-(2-fluorobenzoyl)pyrrolidin-3-yl]-2-(fluoromethyl)benzamide] | 0.0028 µM
Nc1ncnn2c(-c3ccc(CF)c(C(=O)N[C@@H]4CN(C(=O)C5CC5(F)F)C[C@@H]4F)c3)cc(C(F)(F)F)c12 (stereo partly drawn) [Example 914, 5-[4-amino-5-(trifluoromethyl)pyrrolo[2,1-f][1,2,4]triazin-7-yl]-N-[(3R,4S)-1-(2,2-difluorocyclopropanecarbonyl)-4-fluoropyrrolidin-3-yl]-2-(fluoromethyl)benzamide] | 0.0095 µM
Nc1ncnn2c(-c3ccc(CF)c(C(=O)N[C@@H]4CN(C(=O)CC(C(F)(F)F)C(F)(F)F)C[C@@H]4F)c3)cc(C(F)(F)F)c12 [Example 915, 5-[4-amino-5-(trifluoromethyl)pyrrolo[2,1-f][1,2,4]triazin-7-yl]-N-[(3R,4S)-4-fluoro-1-[4,4,4-trifluoro-3-(trifluoromethyl)butanoyl]pyrrolidin-3-yl]-2-(fluoromethyl)benzamide] | 0.0018 µM
Nc1ncnn2c(-c3ccc(CF)c(C(=O)N[C@@H]4CN(C(=O)C5(F)CC5)C[C@@H]4F)c3)cc(C(F)(F)F)c12 [Example 916, 5-[4-amino-5-(trifluoromethyl)pyrrolo[2,1-f][1,2,4]triazin-7-yl]-N-[(3R,4S)-4-fluoro-1-(1-fluorocyclopropanecarbonyl)pyrrolidin-3-yl]-2-(fluoromethyl)benzamide] | 0.015 µM
CC(CC(=O)N1C[C@H](F)[C@H](NC(=O)c2cc(-c3cc(C(F)(F)F)c4c(N)ncnn34)ccc2CF)C1)C(F)(F)F (stereo partly drawn) [Example 917, 5-[4-amino-5-(trifluoromethyl)pyrrolo[2,1-f][1,2,4]triazin-7-yl]-N-[(3R,4S)-4-fluoro-1-(4,4,4-trifluoro-3-methylbutanoyl)pyrrolidin-3-yl]-2-(fluoromethyl)benzamide] | 0.0026 µM
Nc1ncnn2c(-c3ccc(CF)c(C(=O)N[C@@H]4CN(C(=O)C5CCC(F)(F)CC5)C[C@@H]4F)c3)cc(C(F)(F)F)c12 [Example 918, 5-[4-amino-5-(trifluoromethyl)pyrrolo[2,1-f][1,2,4]triazin-7-yl]-N-[(3R,4S)-1-(4,4-difluorocyclohexanecarbonyl)-4-fluoropyrrolidin-3-yl]-2-(fluoromethyl)benzamide] | 0.0046 µM
CC(O)(CC(=O)N1C[C@H](F)[C@H](NC(=O)c2cc(-c3cc(C(F)(F)F)c4c(N)ncnn34)ccc2CF)C1)C(F)(F)F (stereo partly drawn) [Example 919, 5-[4-amino-5-(trifluoromethyl)pyrrolo[2,1-f][1,2,4]triazin-7-yl]-N-[(3R,4S)-4-fluoro-1-(4,4,4-trifluoro-3-hydroxy-3-methylbutanoyl)pyrrolidin-3-yl]-2-(fluoromethyl)benzamide] | 0.0032 µM
Nc1ncnn2c(-c3ccc(CF)c(C(=O)N[C@@H]4CN(C(=O)C5CCC(F)(F)C5)C[C@@H]4F)c3)cc(C(F)(F)F)c12 (stereo partly drawn) [Example 920, 5-[4-amino-5-(trifluoromethyl)pyrrolo[2,1-f][1,2,4]triazin-7-yl]-N-[(3R,4S)-1-(3,3-difluorocyclopentanecarbonyl)-4-fluoropyrrolidin-3-yl]-2-(fluoromethyl)benzamide] | 0.0023 µM
Nc1ncnn2c(-c3ccc(CF)c(C(=O)N[C@@H]4CN(C(=O)CC(F)(F)F)C[C@@H]4F)c3)cc(C(F)(F)F)c12 [Example 921, 5-[4-amino-5-(trifluoromethyl)pyrrolo[2,1-f][1,2,4]triazin-7-yl]-N-[(3R,4S)-4-fluoro-1-(3,3,3-trifluoropropanoyl)pyrrolidin-3-yl]-2-(fluoromethyl)benzamide] | 0.016 µM
CCC(O)(C(=O)N1C[C@H](F)[C@H](NC(=O)c2cc(-c3cc(C(F)(F)F)c4c(N)ncnn34)ccc2CF)C1)C(F)(F)F (stereo partly drawn) [Example 922, 5-[4-amino-5-(trifluoromethyl)pyrrolo[2,1-f][1,2,4]triazin-7-yl]-N-[(3R,4S)-4-fluoro-1-[2-hydroxy-2-(trifluoromethyl)butanoyl]pyrrolidin-3-yl]-2-(fluoromethyl)benzamide] | 0.0042 µM
Nc1ncnn2c(-c3ccc(CF)c(C(=O)N[C@@H]4CN(C(=O)C5CC(F)C5)C[C@@H]4F)c3)cc(C(F)(F)F)c12 (stereo partly drawn) [Example 923, 5-[4-amino-5-(trifluoromethyl)pyrrolo[2,1-f][1,2,4]triazin-7-yl]-N-[(3R,4S)-4-fluoro-1-(3-fluorocyclobutanecarbonyl)pyrrolidin-3-yl]-2-(fluoromethyl)benzamide] | 0.0053 µM
CC(C(=O)N1C[C@H](F)[C@H](NC(=O)c2cc(-c3cc(C(F)(F)F)c4c(N)ncnn34)ccc2CF)C1)C(F)(F)F (stereo partly drawn) [Example 924, 5-[4-amino-5-(trifluoromethyl)pyrrolo[2,1-f][1,2,4]triazin-7-yl]-N-[(3R,4S)-4-fluoro-1-(3,3,3-trifluoro-2-methylpropanoyl)pyrrolidin-3-yl]-2-(fluoromethyl)benzamide] | 0.005 µM
Nc1ncnn2c(-c3ccc(Cl)c(C(=O)N[C@@H]4CN(C(=O)C5CC(F)C5)C[C@@H]4F)c3)cc(C(F)(F)F)c12 (stereo partly drawn) [Example 925, 5-[4-amino-5-(trifluoromethyl)pyrrolo[2,1-f][1,2,4]triazin-7-yl]-2-chloro-N-[(3R,4S)-4-fluoro-1-(3-fluorocyclobutanecarbonyl)pyrrolidin-3-yl]benzamide] | 0.0051 µM
Nc1ncnn2c(-c3ccc(Cl)c(C(=O)N[C@@H]4CN(C(=O)CC(C(F)(F)F)C(F)(F)F)C[C@@H]4F)c3)cc(C(F)(F)F)c12 [Example 926, 5-[4-amino-5-(trifluoromethyl)pyrrolo[2,1-f][1,2,4]triazin-7-yl]-2-chloro-N-[(3R,4S)-4-fluoro-1-[4,4,4-trifluoro-3-(trifluoromethyl)butanoyl]pyrrolidin-3-yl]benzamide] | 0.003 µM
CC(C)(O)C(=O)N1C[C@H](F)[C@H](NC(=O)c2cc(-c3cc(C(F)(F)F)c4c(N)ncnn34)ccc2Cl)C1 [Example 929, 5-[4-amino-5-(trifluoromethyl)pyrrolo[2,1-f][1,2,4]triazin-7-yl]-2-chloro-N-[(3R,4S)-4-fluoro-1-(2-hydroxy-2-methylpropanoyl)pyrrolidin-3-yl]benzamide] | 0.05 µM
